Assay results reported in the supplement of paper PMC12217912.
Some of the results follow. The full chains were built here from the parent and the listed change. Inactive controls read about 0.05.

B1: TEV protease; numbered along this chain (parent)
chain: MGESLFKGPRDYNPISSSICHLTNESDGHTTSLYGIGFGPFIITNKHLFRRNNGTLVVQSLHGVFKVKDTTTLQQHLVDGRDMIIIRMPKDFPPFPQKLKFREPQREERICLVTTNFQTKSMSSMVSDTSCTFPSGDGIFWKHWIQTKDGQCGSPLVSTRDGFIVGIHSASNFTNTNNYFTSVPKNFMELLTNQEAQQWVSGWRLNADSVLWGGHKVFMVKPEEPFQPVKEATQL

Variants of: B1
Test: raw area under fraction-flipped curve 0-4 h after induction (AUC4h, not background-subtracted), DNA-recorder readout of cleavage of the substrate (dimensionless); higher = more cleavage of the substrate by the protease variant
Conditions: temperature: 34 °C; time window: 0-4 h after rhamnose induction
Experimental: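 In vivo DNA recorder in E. coli TOP10(DE3) ΔrhaA at 34 °C. Each TEVp single-site mutant (parent TEVp 0) is paired with a single-site variant of the 7-mer TEVs (canonical ENLYFQ|S). The substrate sits between flexible linkers in a Bxb1-sfGFP-TEVs-SsrA fusion, so cleavage stabilises Bxb1 and speeds flipping of a recombination array, read by NGS. The value is the raw area under the fraction-flipped curve over 0-4 h after rhamnose induction (AUC4h), with ≥20 reads per time point. It is not background-subtracted; inactive controls average about 0.047.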
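Also: Bxb1 expression induced with 0.2% (w/v) L-rhamnose at OD600 near 0.5, cultures sampled hourly, flipped fraction per protease–substrate barcode pair counted by paired-end Illumina sequencing.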

Row | Variant | area with substrate ENLAFQS | area with substrate ENLDFQS | area with substrate ENLEFQS | area with substrate ENLFFQS | area with substrate ENLHFQS | area with substrate ENLIFQS | area with substrate ENLKFQS | area with substrate ENLLFQS | area with substrate ENLNFQS | area with substrate ENLPFQS | area with substrate ENLQFQS | area with substrate ENLRFQS | area with substrate ENLSFQS | area with substrate ENLWFQS | area with substrate ENLGFQS | area with substrate ENLMFQS | area with substrate ENLCFQS | area with substrate ENLVFQS | area with substrate ENLTFQS
1 | MGESLFKGPRDYNPISSSICHLTNESDGHTTSLYGIGFGPFIITNKHLFRRNNGTLVVQSLHGVFKVKDTTTLQKHLVDGRDMIIIRMPKDFPPFPQKLKFREPQREERICLVTTNFQTKSMSSMVSDTSCTFPSGDGIFWKHWIQTKDGQCGSPLVSTRDGFIVGIHSASNFTNTNNYFTSVPKNFMELLTNQEAQQWVSGWRLNADSVLWGGHKVFMVKPEEPFQPVKEATQL [Q75K] | 0.059 | 0.0624 | 0.0545 | 0.0757 | 0.0568 | 0.0664 | 0.0658 | 0.0601 | 0.0575 | 0.0596 | 0.0573 | 0.0607 | 0.0548 | 0.0531 | – | – | – | – | –
2 | MGESLFKGPRDYNPISSSICHLTNESDGHTTSLYGIGFGPFIITNKHLFRRNNGTLVVQSLHGVFKVKDTTTLQRHLVDGRDMIIIRMPKDFPPFPQKLKFREPQREERICLVTTNFQTKSMSSMVSDTSCTFPSGDGIFWKHWIQTKDGQCGSPLVSTRDGFIVGIHSASNFTNTNNYFTSVPKNFMELLTNQEAQQWVSGWRLNADSVLWGGHKVFMVKPEEPFQPVKEATQL [Q75R] | 0.0618 | 0.0639 | – | 0.0853 | 0.0688 | 0.0489 | 0.0549 | – | 0.0596 | 0.0586 | 0.0771 | 0.0567 | 0.0679 | 0.0615 | 0.0675 | – | – | – | –
3 | MGESLFKGPRDYNPISSSICHLTNESDGHTTSLYGIGFGPFIITNKHLFRRNNGTLVVQSLHGVFKVKDTTTLQQRLVDGRDMIIIRMPKDFPPFPQKLKFREPQREERICLVTTNFQTKSMSSMVSDTSCTFPSGDGIFWKHWIQTKDGQCGSPLVSTRDGFIVGIHSASNFTNTNNYFTSVPKNFMELLTNQEAQQWVSGWRLNADSVLWGGHKVFMVKPEEPFQPVKEATQL [H76R] | 0.0698 | 0.0553 | 0.0611 | 0.0741 | 0.071 | 0.0603 | 0.0726 | 0.0552 | 0.0518 | 0.0394 | – | 0.0643 | 0.0553 | 0.063 | – | 0.0823 | – | – | –
4 | MGESLFKGPRDYNPISSSICHLTNESDGHTTSLYGIGFGPFIITNKHLFRRNNGTLVVQSLHGVFKVKDTTTLQQHIVDGRDMIIIRMPKDFPPFPQKLKFREPQREERICLVTTNFQTKSMSSMVSDTSCTFPSGDGIFWKHWIQTKDGQCGSPLVSTRDGFIVGIHSASNFTNTNNYFTSVPKNFMELLTNQEAQQWVSGWRLNADSVLWGGHKVFMVKPEEPFQPVKEATQL [L77I] | 0.0558 | 0.0634 | 0.0551 | 0.067 | – | 0.0627 | 0.0609 | 0.0739 | 0.0607 | 0.0667 | 0.0568 | 0.0677 | 0.0564 | 0.0405 | – | – | 0.065 | 0.0674 | –
5 | MGESLFKGPRDYNPISSSICHLTNESDGHTTSLYGIGFGPFIITNKHLFRRNNGTLVVQSLHGVFKVKDTTTLQQHYVDGRDMIIIRMPKDFPPFPQKLKFREPQREERICLVTTNFQTKSMSSMVSDTSCTFPSGDGIFWKHWIQTKDGQCGSPLVSTRDGFIVGIHSASNFTNTNNYFTSVPKNFMELLTNQEAQQWVSGWRLNADSVLWGGHKVFMVKPEEPFQPVKEATQL [L77Y] | 0.0629 | 0.0705 | 0.076 | 0.0918 | 0.089 | 0.0695 | 0.0653 | 0.0667 | – | – | 0.0568 | – | 0.0519 | – | – | 0.0516 | 0.0581 | 0.0626 | 0.0677
6 | MGESLFKGPRDYNPISSSICHLTNESDGHTTSLYGIGFGPFIITNKHLFRRNNGTLVVQSLHGVFKVKDTTTLQQHLPDGRDMIIIRMPKDFPPFPQKLKFREPQREERICLVTTNFQTKSMSSMVSDTSCTFPSGDGIFWKHWIQTKDGQCGSPLVSTRDGFIVGIHSASNFTNTNNYFTSVPKNFMELLTNQEAQQWVSGWRLNADSVLWGGHKVFMVKPEEPFQPVKEATQL [V78P] | 0.0737 | 0.0516 | 0.0513 | 0.0739 | 0.0585 | 0.0633 | 0.0664 | – | 0.0606 | 0.0432 | 0.0584 | 0.0596 | 0.0547 | 0.0533 | 0.0586 | 0.0602 | 0.0789 | 0.0616 | –
7 | MGESLFKGPRDYNPISSSICHLTNESDGHTTSLYGIGFGPFIITNKHLFRRNNGTLVVQSLHGVFKVKDTTTLQQHLWDGRDMIIIRMPKDFPPFPQKLKFREPQREERICLVTTNFQTKSMSSMVSDTSCTFPSGDGIFWKHWIQTKDGQCGSPLVSTRDGFIVGIHSASNFTNTNNYFTSVPKNFMELLTNQEAQQWVSGWRLNADSVLWGGHKVFMVKPEEPFQPVKEATQL [V78W] | 0.0724 | 0.06 | 0.0758 | 0.08 | 0.0675 | 0.0691 | 0.0653 | – | 0.063 | – | 0.0405 | – | – | – | 0.0612 | – | – | 0.0781 | –
8 | MGESLFKGPRDYNPISSSICHLTNESDGHTTSLYGIGFGPFIITNKHLFRRNNGTLVVQSLHGVFKVKDTTTLQQHLYDGRDMIIIRMPKDFPPFPQKLKFREPQREERICLVTTNFQTKSMSSMVSDTSCTFPSGDGIFWKHWIQTKDGQCGSPLVSTRDGFIVGIHSASNFTNTNNYFTSVPKNFMELLTNQEAQQWVSGWRLNADSVLWGGHKVFMVKPEEPFQPVKEATQL [V78Y] | 0.0645 | 0.0619 | – | 0.0817 | – | 0.0564 | 0.062 | – | – | – | – | – | 0.0635 | 0.0541 | – | 0.0652 | 0.0568 | – | –
9 | MGESLFKGPRDYNPISSSICHLTNESDGHTTSLYGIGFGPFIITNKHLFRRNNGTLVVQSLHGVFKVKDTTTLQQHLVDGCDMIIIRMPKDFPPFPQKLKFREPQREERICLVTTNFQTKSMSSMVSDTSCTFPSGDGIFWKHWIQTKDGQCGSPLVSTRDGFIVGIHSASNFTNTNNYFTSVPKNFMELLTNQEAQQWVSGWRLNADSVLWGGHKVFMVKPEEPFQPVKEATQL [R81C] | 0.0656 | 0.0594 | 0.0685 | 0.072 | 0.0708 | 0.0678 | 0.0843 | 0.0837 | 0.0577 | 0.0461 | 0.0754 | 0.0639 | 0.0653 | 0.0608 | 0.0752 | 0.0637 | 0.06 | – | –
